The chains are these.
T1: RBFOX1 RRM RbFoxmut (Fox-RRM*) (Homo sapiens, UniProt Q9NWB1 109-208, R118D;E147R;N151S;E152T)
T1 sequence: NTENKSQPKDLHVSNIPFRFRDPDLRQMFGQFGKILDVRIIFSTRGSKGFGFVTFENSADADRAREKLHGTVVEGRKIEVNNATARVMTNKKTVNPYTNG

B1: GACAUAA (DNA:RNA)
RNA: GGGAGACCGGAAUUCAGAUUGUCCGACAUAAUUAAAUCCCGUCGUAGCCACCA
DNA 1: CAATCTGAATTCCGGTCTCCC
DNA 2: TGGTGGCTACGACGGGATT
B2: ACGCAUG (DNA:RNA)
RNA: GGGAGACCGGAAUUCAGAUUGUCCACGCAUGUUAAAUCCCGUCGUAGCCACCA
DNA 1: CAATCTGAATTCCGGTCTCCC
DNA 2: TGGTGGCTACGACGGGATT
B3: GGAUGUC (DNA:RNA)
RNA: B2 RNA with A25G, C26G, G27A, C28U, A29G, G31C
DNA 1: CAATCTGAATTCCGGTCTCCC
DNA 2: TGGTGGCTACGACGGGATT
B4: GAGGGAC (DNA:RNA)
RNA: B1 RNA with C27G, A28G, U29G, A31C
DNA 1: CAATCTGAATTCCGGTCTCCC
DNA 2: TGGTGGCTACGACGGGATT
B5: ACGAUCG (DNA:RNA)
RNA: B2 RNA with C28A, A29U, U30C
DNA 1: CAATCTGAATTCCGGTCTCCC
DNA 2: TGGTGGCTACGACGGGATT
B6: UGUUGGG (DNA:RNA)
RNA: B2 RNA with A25U, C26G, G27U, C28U, A29G, U30G
DNA 1: CAATCTGAATTCCGGTCTCCC
DNA 2: TGGTGGCTACGACGGGATT
B7: UACUUGU (DNA:RNA)
RNA: B1 RNA with G25U, A28U, A30G, A31U
DNA 1: CAATCTGAATTCCGGTCTCCC
DNA 2: TGGTGGCTACGACGGGATT
B8: UGUCAUU (DNA:RNA)
RNA: B2 RNA with A25U, C26G, G27U, G31U
DNA 1: CAATCTGAATTCCGGTCTCCC
DNA 2: TGGTGGCTACGACGGGATT
B9: CCUGAAG (DNA:RNA)
RNA: B2 RNA with A25C, G27U, C28G, U30A
DNA 1: CAATCTGAATTCCGGTCTCCC
DNA 2: TGGTGGCTACGACGGGATT
B10: GCUGCGA (DNA:RNA)
RNA: B1 RNA with A26C, C27U, A28G, U29C, A30G
DNA 1: CAATCTGAATTCCGGTCTCCC
DNA 2: TGGTGGCTACGACGGGATT
B11: AUAUGAU (DNA:RNA)
RNA: B2 RNA with C26U, G27A, C28U, A29G, U30A, G31U
DNA 1: CAATCTGAATTCCGGTCTCCC
DNA 2: TGGTGGCTACGACGGGATT
B12: AGUACUU (DNA:RNA)
RNA: B2 RNA with C26G, G27U, C28A, A29C, G31U
DNA 1: CAATCTGAATTCCGGTCTCCC
DNA 2: TGGTGGCTACGACGGGATT
B13: GGCAGCC (DNA:RNA)
RNA: B1 RNA with A26G, U29G, A30C, A31C
DNA 1: CAATCTGAATTCCGGTCTCCC
DNA 2: TGGTGGCTACGACGGGATT
B14: UCAGGAA (DNA:RNA)
RNA: B1 RNA with G25U, A26C, C27A, A28G, U29G
DNA 1: CAATCTGAATTCCGGTCTCCC
DNA 2: TGGTGGCTACGACGGGATT
B15: AAGGCCC (DNA:RNA)
RNA: B2 RNA with C26A, C28G, A29C, U30C, G31C
DNA 1: CAATCTGAATTCCGGTCTCCC
DNA 2: TGGTGGCTACGACGGGATT
B16: ACCCUGC (DNA:RNA)
RNA: B2 RNA with G27C, A29U, U30G, G31C
DNA 1: CAATCTGAATTCCGGTCTCCC
DNA 2: TGGTGGCTACGACGGGATT
B17: UGAAGGC (DNA:RNA)
RNA: B1 RNA with G25U, A26G, C27A, U29G, A30G, A31C
DNA 1: CAATCTGAATTCCGGTCTCCC
DNA 2: TGGTGGCTACGACGGGATT
B18: UGUAUCG (DNA:RNA)
RNA: B1 RNA with G25U, A26G, C27U, A30C, A31G
DNA 1: CAATCTGAATTCCGGTCTCCC
DNA 2: TGGTGGCTACGACGGGATT
B19: GCUAGGC (DNA:RNA)
RNA: B1 RNA with A26C, C27U, U29G, A30G, A31C
DNA 1: CAATCTGAATTCCGGTCTCCC
DNA 2: TGGTGGCTACGACGGGATT
B20: AGGGACC (DNA:RNA)
RNA: B2 RNA with C26G, C28G, U30C, G31C
DNA 1: CAATCTGAATTCCGGTCTCCC
DNA 2: TGGTGGCTACGACGGGATT
B21: AGUACCU (DNA:RNA)
RNA: B2 RNA with C26G, G27U, C28A, A29C, U30C, G31U
DNA 1: CAATCTGAATTCCGGTCTCCC
DNA 2: TGGTGGCTACGACGGGATT
B22: CGAGCUA (DNA:RNA)
RNA: B2 RNA with A25C, C26G, G27A, C28G, A29C, G31A
DNA 1: CAATCTGAATTCCGGTCTCCC
DNA 2: TGGTGGCTACGACGGGATT
B23: UCGCUGA (DNA:RNA)
RNA: B2 RNA with A25U, A29U, U30G, G31A
DNA 1: CAATCTGAATTCCGGTCTCCC
DNA 2: TGGTGGCTACGACGGGATT
B24: ACAUUUU (DNA:RNA)
RNA: B2 RNA with G27A, C28U, A29U, G31U
DNA 1: CAATCTGAATTCCGGTCTCCC
DNA 2: TGGTGGCTACGACGGGATT
B25: UCGUAUU (DNA:RNA)
RNA: B2 RNA with A25U, C28U, G31U
DNA 1: CAATCTGAATTCCGGTCTCCC
DNA 2: TGGTGGCTACGACGGGATT
B26: AUAGAAU (DNA:RNA)
RNA: B2 RNA with C26U, G27A, C28G, U30A, G31U
DNA 1: CAATCTGAATTCCGGTCTCCC
DNA 2: TGGTGGCTACGACGGGATT
B27: AAUAACC (DNA:RNA)
RNA: B2 RNA with C26A, G27U, C28A, U30C, G31C
DNA 1: CAATCTGAATTCCGGTCTCCC
DNA 2: TGGTGGCTACGACGGGATT
B28: GAAAGCC (DNA:RNA)
RNA: B1 RNA with C27A, U29G, A30C, A31C
DNA 1: CAATCTGAATTCCGGTCTCCC
DNA 2: TGGTGGCTACGACGGGATT
B29: GCUGCGU (DNA:RNA)
RNA: B2 RNA with A25G, G27U, C28G, A29C, U30G, G31U
DNA 1: CAATCTGAATTCCGGTCTCCC
DNA 2: TGGTGGCTACGACGGGATT
B30: CGGAGCU (DNA:RNA)
RNA: B2 RNA with A25C, C26G, C28A, A29G, U30C, G31U
DNA 1: CAATCTGAATTCCGGTCTCCC
DNA 2: TGGTGGCTACGACGGGATT
B31: AUGUGCC (DNA:RNA)
RNA: B2 RNA with C26U, C28U, A29G, U30C, G31C
DNA 1: CAATCTGAATTCCGGTCTCCC
DNA 2: TGGTGGCTACGACGGGATT

Numbering of substitutions follows the chain as printed; changes in the protein carry UniProt numbers. This is one part of the list.

In this test the target is T1, RBFOX1 RRM RbFoxmut (Fox-RRM*). The experiment in a line: EMSA; HiTS-Eq, 1 nM pool, 10 min; buffer printed only for the single-RNA assays: 10 mM Tris pH 7.5, 150 mM NaCl, 3.4 mM EDTA, 0.001% NP-40, 30 C. The following applies: tags: His6 N-terminal (pET28a); label: 5' 32P. In outline: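 Relative association constants, normalised to the cognate motif, were derived by comparing read counts of each RNA species with those of the control reaction. The RNA sequenced was the free fraction, separated by 8% native PAGE after a 10 min equilibration in 50 µL of 1 nM 5′-radiolabelled RNA (7 randomized nucleotides) with increasing concentrations of purified wild-type or mutant RbFox RRM.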
As to B1, the binding signal is 0.115 KA relative to UGCAUGU.
Consider B2, for which the binding signal is 0.844 KA relative to UGCAUGU.
Take B3: the binding signal was 0.295 KA relative to UGCAUGU.
Next, B4: 0.0647 KA relative to UGCAUGU; B5: 0.106 KA relative to UGCAUGU.
As to B6, the binding signal was 0.0997 KA relative to UGCAUGU.
For the molecule B7, the binding signal was 0.13 KA relative to UGCAUGU.
As for B8, the figure is 0.0811 KA relative to UGCAUGU; as for B9, 0.0788 KA relative to UGCAUGU; as for B10, 0.118 KA relative to UGCAUGU.
Next, B11: 0.0827 KA relative to UGCAUGU; B12: 0.0864 KA relative to UGCAUGU.
In the case of B13, the binding signal is 0.119 KA relative to UGCAUGU.
Next, B14: 0.109 KA relative to UGCAUGU; B15: 0.0497 KA relative to UGCAUGU; B16: 0.11 KA relative to UGCAUGU.
As for B17, the figure is 0.0677 KA relative to UGCAUGU; as for B18, 0.648 KA relative to UGCAUGU; as for B19, 0.0891 KA relative to UGCAUGU.
On to B20, for which the binding signal was 0.0744 KA relative to UGCAUGU.
Next, B21: 0.0855 KA relative to UGCAUGU; B22: 0.124 KA relative to UGCAUGU; B23: 0.0669 KA relative to UGCAUGU.
As for B24, the figure is 0.12 KA relative to UGCAUGU; as for B25, 0.113 KA relative to UGCAUGU.
Next, B26: 0.12 KA relative to UGCAUGU; B27: 0.0665 KA relative to UGCAUGU.
As to B28, the binding signal was 0.0562 KA relative to UGCAUGU.
For the molecule B29, the binding signal was 0.163 KA relative to UGCAUGU.
Next, B30: 0.0684 KA relative to UGCAUGU.
Next, B31: 0.372 KA relative to UGCAUGU.

These data come from PMC9911399, “Two distinct binding modes provide the RNA-binding protein RbFox with extraordinary sequence specificity”.
